# From the supplement of paper PMC4604168 (melanoma cell lines)
# The other results are listed elsewhere or left out. Many values rest on one well or one pass, so single values are uncertain.
# Test system: C32
# Assay: cell count relative to DMSO control; melanoma cells; higher = more viable cells
# Settings: library dose: low library concentration; 72 h
# 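Also: cell number obtained by counting DAPI-stained nuclei in high-throughput microscope images with image analysis software, screen run in 1,536-well plates.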
row,SMILES,cell count [%]
1,"O=C(O)[C@@H]1[O][Sb](=[O])([O][Sb]2(=[O])[O][C@H]([C@H](O)CO)[C@H](O)[C@H](C(=O)O)[O]2)[O][C@H]([C@H](O)CO)[C@@H]1O (stereo not given in full) [stibogluconate] + C=CCn1c(=O)c2cnc(Nc3ccc(N4CCN(C)CC4)cc3)nc2n1-c1cccc(C(C)(C)O)n1 [MK1775] (first compound 2 µM, partner dose 0.02 µM)",99.9
2,"O=C(Nc1cc(C(F)(F)F)cc(C(F)(F)F)c1)c1cc(Cl)ccc1O + CN(c1ncccc1CNc1nc(Nc2ccc3c(c2)CC(=O)N3)ncc1C(F)(F)F)S(C)(=O)=O [PF562271] (first compound 0.016 µM, partner dose 0.08 µM)",101
3,"O=C(Nc1cc(C(F)(F)F)cc(C(F)(F)F)c1)c1cc(Cl)ccc1O + COc1ccc(C2=N[C@@H](c3ccc(Cl)cc3)[C@@H](c3ccc(Cl)cc3)N2C(=O)N2CCNC(=O)C2)c(OC(C)C)c1 [Nutlin-3] (first compound 0.016 µM, partner dose 0.1 µM)",106
4,"O=C(Nc1cc(C(F)(F)F)cc(C(F)(F)F)c1)c1cc(Cl)ccc1O + CN1CCN(c2ccc3nc(-c4c(N)c5c(F)cccc5[nH]c4=O)[nH]c3c2)CC1 [Dovitinib] (first compound 0.016 µM, partner dose 0.1 µM)",85.5
5,"Cc1cc(N2CCOCC2)cc2[nH]c(-c3c(NC[C@@H](O)c4cccc(Cl)c4)cc[nH]c3=O)nc12 + OCCn1cc(-c2cnc3nnn(Cc4ccc5ncccc5c4)c3n2)cn1 [PF04217903] (first compound 0.2 µM, partner dose 1 µM)",91.7
6,"O=C(O)[C@@H]1[O][Sb](=[O])([O][Sb]2(=[O])[O][C@H]([C@H](O)CO)[C@H](O)[C@H](C(=O)O)[O]2)[O][C@H]([C@H](O)CO)[C@@H]1O (stereo not given in full) [stibogluconate] + COc1ccc(Cl)c(Nc2nc3ccccc3nc2NS(=O)(=O)c2cccc(NC(=O)C(C)(C)N)c2)c1 [XL147] (first compound 2 µM, partner dose 0.8 µM)",87
7,"O=C(O)c1ccc2c(c1)nc(Nc1cccc(Cl)c1)c1ccncc12 + Nc1ccn([C@@H]2O[C@H](CO)[C@@H](O)C2(F)F)c(=O)n1 [gemcitabine] (first compound 0.4 µM, partner dose 0.0004 µM)",105
8,"O=C(Nc1cc(C(F)(F)F)cc(C(F)(F)F)c1)c1cc(Cl)ccc1O + Cc1nc(Nc2ncc(C(=O)Nc3c(C)cccc3Cl)s2)cc(N2CCN(CCO)CC2)n1 [dasatanib] (first compound 0.016 µM, partner dose 0.004 µM)",74.8
9,"O=C(O)c1ccc2c(c1)nc(Nc1cccc(Cl)c1)c1ccncc12 + CCCS(=O)(=O)Nc1ccc(F)c(C(=O)c2c[nH]c3ncc(Cl)cc23)c1F [PLX4720] (first compound 0.4 µM, partner dose 0.08 µM)",86.3
10,"O=C(Nc1cc(C(F)(F)F)cc(C(F)(F)F)c1)c1cc(Cl)ccc1O + Nc1nc(F)nc2c1ncn2[C@@H]1O[C@H](CO)[C@@H](O)[C@@H]1O [fludarabine] (first compound 0.016 µM, partner dose 0.2 µM)",92.3
11,"O=C(O)c1ccc2c(c1)nc(Nc1cccc(Cl)c1)c1ccncc12 + O=C(Nc1cccc(Cl)c1)Nc1ncc(CCNc2ncnc3ccsc23)s1 [SNS314] (first compound 0.4 µM, partner dose 0.0008 µM)",86.5
12,"O=C(O)c1ccc2c(c1)nc(Nc1cccc(Cl)c1)c1ccncc12 + C=C(c1ccc(C(=O)O)cc1)c1cc2c(cc1C)C(C)(C)CCC2(C)C [Bexarotene] (first compound 0.4 µM, partner dose 2 µM)",95.3
13,"O=C(O)[C@@H]1[O][Sb](=[O])([O][Sb]2(=[O])[O][C@H]([C@H](O)CO)[C@H](O)[C@H](C(=O)O)[O]2)[O][C@H]([C@H](O)CO)[C@@H]1O (stereo not given in full) [stibogluconate] + CS(=O)(=O)CCNCc1ccc(-c2ccc3ncnc(Nc4ccc(OCc5cccc(F)c5)c(Cl)c4)c3c2)o1 [lapatinib] (first compound 2 µM, partner dose 0.8 µM)",112
14,"O=C(O)c1ccc2c(c1)nc(Nc1cccc(Cl)c1)c1ccncc12 + NCC(=O)Nc1ccc(-n2nc(C(F)(F)F)cc2-c2ccc3c(ccc4ccccc43)c2)cc1 [OSU03012] (first compound 0.4 µM, partner dose 1 µM)",94
15,"O=C(Nc1cc(C(F)(F)F)cc(C(F)(F)F)c1)c1cc(Cl)ccc1O + CNC(=O)c1cc(Oc2ccc(NC(=O)Nc3ccc(Cl)c(C(F)(F)F)c3)cc2)ccn1 [sorafenib] (first compound 0.016 µM, partner dose 0.4 µM)",95.5
